In article PMC6919601, “Identification of Plasmodium dipeptidyl aminopeptidase allosteric inhibitors by high throughput screening” (PLoS ONE, 2019):
Screen size: about 110,000 compounds; about 230 (0.21%) showed an effect of 50% or more. Some of the results follow.

target: DPAP1 (Plasmodium falciparum, UniProt Q8IIJ9); assay: primary screen, percent inhibition; read by cleavage of a fluorogenic dipeptide substrate; higher = more effect of the substance; design: species or system P. falciparum D10 trophozoite lysates; single well
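Note: 30 min substrate incubation versus DMSO and 10 µM JCP410 controls.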

DPAP1, sequence (Q8IIJ9 whole entry, looked up): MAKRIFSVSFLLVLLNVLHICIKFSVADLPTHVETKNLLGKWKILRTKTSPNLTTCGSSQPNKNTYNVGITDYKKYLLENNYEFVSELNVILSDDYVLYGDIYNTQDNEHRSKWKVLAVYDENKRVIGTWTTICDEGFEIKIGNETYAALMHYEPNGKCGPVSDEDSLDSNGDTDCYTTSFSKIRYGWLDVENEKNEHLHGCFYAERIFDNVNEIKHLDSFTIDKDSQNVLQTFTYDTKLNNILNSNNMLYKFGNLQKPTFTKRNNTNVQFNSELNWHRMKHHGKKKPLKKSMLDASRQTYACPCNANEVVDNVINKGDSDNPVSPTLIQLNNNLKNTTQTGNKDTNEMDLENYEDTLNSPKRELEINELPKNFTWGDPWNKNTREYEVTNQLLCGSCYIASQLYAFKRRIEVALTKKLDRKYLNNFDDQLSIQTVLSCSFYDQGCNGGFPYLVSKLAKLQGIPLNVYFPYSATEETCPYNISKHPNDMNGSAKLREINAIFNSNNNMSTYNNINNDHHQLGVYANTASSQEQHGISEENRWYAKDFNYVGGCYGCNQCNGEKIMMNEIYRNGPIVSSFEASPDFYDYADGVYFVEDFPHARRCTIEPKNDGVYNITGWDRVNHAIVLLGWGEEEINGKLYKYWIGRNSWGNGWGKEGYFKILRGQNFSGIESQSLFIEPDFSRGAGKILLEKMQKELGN

| Compound | % Inhibition @ 10 uM |
| --- | --- |
| O=C(NCCSc1ccc(Cl)cc1)c1ccco1 | -7.58% |
| O=C1N=C(Nc2ccc(F)cc2)S/C1=C\c1cc(Cl)ccc1O | 28.8% |
| CC(NC(=O)CN(C1CCCCC1)S(=O)(=O)c1ccc(Cl)cc1)c1ccccc1 (stereo not drawn) | -1.37% |
| COc1ccccc1N1CCN(CCN2C(=O)C3CCCCN3C2=O)CC1 (stereo not drawn) | -7.15% |
| CC(C)CCN1CC(C)C(O)(c2ccccc2)CC1C (stereo not drawn) | -1.91% |
| Cc1ccccc1N1C(N)=C(C#N)C(c2ccc3c(c2)OCO3)C2=C1CCCC2=O (stereo not drawn) | 1.01% |
| COc1ccc(C2(C(=O)Nc3ccccc3C)CCOCC2)cc1OC | -8.95% |
| COc1cc2c(C(=O)N3CCOCC3)c(CSc3ccccc3)n(C)c2cc1Br | 3.66% |
| N#CC1=C(N)Oc2c(c(=O)oc3ccccc23)C1c1ccsc1 (stereo not drawn) | 2.4% |
| O=C1C2C(c3ccccc3)OC3(C(=O)c4ccccc4C3=O)C2C(=O)N1CCc1ccc(F)cc1 (stereo not drawn) | 0.931% |
| CCCc1c(C)nc2c(-c3ccc(Cl)cc3)c(C)nn2c1O | 1.91% |
| CCc1ccc(CNC(=O)CCn2cnc3onc(-c4ccc(F)cc4)c3c2=O)cc1 | -1.61% |
| CC1=C(c2ccc(Cl)cc2)S(=O)(=O)N=C1N1CCN(C(=O)c2ccco2)CC1 | 2.27% |
| CN(C)CCCOC(=O)c1sc2ccccc2c1Cl | -10.2% |
| COc1ccc(C2=N/C(=C/c3cc(OC)c(OC)c(OC)c3)C(=O)O2)cc1Br | 2.93% |
| Cn1nc(C(F)(F)C(F)F)cc1-c1ccccc1O | -1.69% |
| c1ccc(CN2CCC(NC3CCCC3)CC2)cc1 | 4.54% |
| Sc1nnc(-c2ccccc2Cl)n1-c1ccccc1 | 4.54% |
| COc1ccccc1CNS(=O)(=O)c1ccc(-c2ccc(O)nn2)s1 | -1.79% |
| COCCNC(=O)c1ccc2[nH]c(C)c(C)c2c1 | -3.76% |
| Fc1ccc(Nc2nc(-c3ccccc3)cs2)cc1 | -0.771% |
| O=C(NC(c1ccccc1)c1c(O)ccc2ccccc12)c1ccccc1 (stereo not drawn) | -3.98% |
| CCN(CC)CCn1c(NC(=O)c2cccc(F)c2)nc2ccccc21 | 4.54% |
| Cc1ccc(C)c(OCC(=O)N(Cc2nc(-c3ccc(Cl)cc3)no2)C(C)C)c1 | -6.23% |
| Cc1ccc(OCCCCN2CCCC2)cc1C | -0.351% |
| CC(C)=CCCC(C)CN(C)CCN(C)C (stereo not drawn) | -2.34% |

| Compound | % Inhibition @ 10 uM |
| --- | --- |
| N#CCCOCc1cccc2ccccc12 | -1.86% |
| CC(C)c1ccc(NC(=O)Nc2cccc3ccccc23)cc1 | 1.74% |
| CC(=O)C(Sc1ncnc2sc(C)c(C)c12)C(C)=O | 3.54% |
| O=S(=O)(Nc1ccccc1F)c1cc(Cl)ccc1Cl | 2.22% |
| Cc1cc(/C=C2/NC(=O)NC2=O)c(C)n1-c1ccc(C#N)cc1 | 5.37% |
| Cc1ccc(C(=O)Nc2ccc(-c3cn4ccsc4n3)cc2)cc1 | 1.37% |
| CC1CCc2c(sc(NC(=O)c3ccncc3)c2C(N)=O)C1 (stereo not drawn) | -0.725% |
| CN(C)c1ccc(C2C3=C(O)CC(C)(C)CC3=Nc3nc(S)nc(N)c32)cc1 (stereo not drawn) | 1.08% |
| Cc1ccccc1CCNC(=O)c1ccc2[nH]c(C)c(C)c2c1 | 1.44% |
| CCC(=O)NC1=NC(=O)/C(=C/c2cc3c(cc2Br)OCO3)S1 | 3.99% |
| O=C(Nc1cccc(O)c1)c1cccc(S(=O)(=O)Nc2cccc(O)c2)c1 | 4.8% |
| O=C1c2ccccc2C(NCCc2ccccc2)N1CCc1ccccc1 (stereo not drawn) | -3.74% |
| Cc1ccc2nc(N(CCCN(C)C)C(=O)COc3ccccc3)sc2c1 | 3.48% |
| COc1cc(C2C(C#N)=C(N)N(c3cccc(C)c3)C3=C2C(=O)CCC3)cc(OC)c1OC (stereo not drawn) | 0.536% |
| O=C(Cn1ncn2c(cc3cc(F)ccc32)c1=O)NC1CCCc2ccccc21 (stereo not drawn) | 3.29% |
| Cc1ccc2c(c1)c1c3n2CCN(C(C)c2ccccc2)C3CCC1 (stereo not drawn) | 3.18% |
| OCC1CCCCN1C1CCc2ccccc2C1 (stereo not drawn) | 3.19% |
| CCc1ccc(OCC(=O)Nc2ccc(S(=O)(=O)N3CCCC3)cc2)cc1 | -0.185% |
| COc1cc2c3c(c1OC)-c1cc(O)ccc1CC3NCC2 (stereo not drawn) | -3.13% |
| Cc1ccnc(SC(C(=O)c2ccccc2)c2ccccc2)n1 (stereo not drawn) | 1.62% |
| CC1(C)CC(=O)C2=C(C1)NC(=O)CC2c1cccc(O)c1 (stereo not drawn) | -1.29% |
| O=C(NC(Cc1ccccc1)C(=O)O)/C(=C\c1ccco1)NC(=O)c1ccco1 (stereo not drawn) | 5.55% |
| O=C1c2cccc3cccc(c23)N1CN1CCN(c2ccccc2F)CC1 | -7.18% |
| Cc1cc(NC2CCCCC2)nc(-c2ccc(Br)cc2)n1 | -7.93% |
| CCCc1nc(N)c(C#N)c(-c2cccs2)c1CC | 2.1% |
